# In PubChem BioAssay AID488969 (Vanderbilt High Throughput Screening Facility, 2010):
# Over roughly 110,000 compounds, “z-score” has its median near -0.1; the highest 2% begin near 2. The list shows a part of the results. Calls of active or inactive are those of the source.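 How the source made its calls: active means z-score in the third read window above 3 or below -3; inactive means the rest.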
# Molecular target: Metabotropic glutamate receptor 8 (Rattus norvegicus) (UniProt P70579)
# Assay: rat mGluR8 modulators via GIRK flux, primary screen, cell-based, thallium flux, HTS (AID 488969)
# Details: HEK293 rat mGluR8, GIRK (G protein-gated inwardly rectifying potassium channel) thallium flux, FluoZin2; at 10 µM; stronger effect = higher value; submaximal glutamate (EC20) added with thallium
# Sequence of UniProt P70579 (P70579 whole entry, looked up): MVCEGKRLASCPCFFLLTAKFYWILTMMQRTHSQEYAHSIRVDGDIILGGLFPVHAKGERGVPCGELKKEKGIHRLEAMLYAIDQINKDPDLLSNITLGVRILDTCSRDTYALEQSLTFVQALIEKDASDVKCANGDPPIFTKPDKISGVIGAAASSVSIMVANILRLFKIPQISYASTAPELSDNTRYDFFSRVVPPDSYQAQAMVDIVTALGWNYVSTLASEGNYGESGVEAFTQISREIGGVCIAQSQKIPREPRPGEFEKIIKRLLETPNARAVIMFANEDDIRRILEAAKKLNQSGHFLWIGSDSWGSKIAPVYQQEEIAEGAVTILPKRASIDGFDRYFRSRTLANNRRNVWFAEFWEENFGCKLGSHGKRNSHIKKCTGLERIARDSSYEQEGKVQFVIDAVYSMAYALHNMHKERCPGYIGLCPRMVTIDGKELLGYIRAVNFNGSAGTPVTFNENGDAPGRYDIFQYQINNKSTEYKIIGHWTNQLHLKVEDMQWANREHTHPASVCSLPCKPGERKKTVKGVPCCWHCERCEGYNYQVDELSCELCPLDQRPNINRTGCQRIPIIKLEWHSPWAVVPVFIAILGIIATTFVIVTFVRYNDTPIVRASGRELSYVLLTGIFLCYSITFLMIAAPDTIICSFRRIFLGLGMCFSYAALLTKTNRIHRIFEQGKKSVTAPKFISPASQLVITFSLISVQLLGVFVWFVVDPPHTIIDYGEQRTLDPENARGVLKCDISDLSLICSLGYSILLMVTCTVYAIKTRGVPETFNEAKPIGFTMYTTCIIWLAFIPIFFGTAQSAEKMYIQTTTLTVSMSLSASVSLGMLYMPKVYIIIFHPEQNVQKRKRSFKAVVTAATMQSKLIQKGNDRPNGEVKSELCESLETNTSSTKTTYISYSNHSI
row,SMILES,z-score
1,Cc1ccc(CN2CC34C=CC(O3)C(C(=O)NCc3ccco3)C4C2=O)cc1 (stereo not given),1.13
2,CCOC(=O)c1sc2nc(SCC#N)n(CCCN3CCCC3=O)c(=O)c2c1C,-0.259
3,CCOC(=O)c1c(NC(=O)c2ccco2)sc(C(=O)N2CCCC2)c1C,-1.56
4,COc1cccc(CNC(=O)C(=O)NCC(c2ccco2)N2CCOCC2)c1 (stereo not given),-0.165
5,Cc1cc(NC(=O)/C(C#N)=C/c2ccco2)n(-c2ccccc2)n1,-0.178
6,O=C(c1ccc(Cl)cc1)N1CCN(c2ccc(F)cc2)CC1,-0.107
7,O=C(CCCc1nc(-c2ccccc2Cl)no1)NC1CCCCC1,-0.158
8,N/C(Cc1cccs1)=N\OC(=O)COc1ccccc1,-1.06
9,Cc1cccc2cc(CN(Cc3ccccc3)C(=O)N3CCOCC3)c3nnnn3c12,-0.613
10,O=C(CCCn1c(=O)[nH]c2cc(Cl)ccc2c1=O)NCCCN1CCCC1=O,0.338
11,CCc1cc(C(=O)Cc2cnn(-c3ccccc3)c2)c(O)cc1O,0.114
12,C/C(=N/NC(=O)CSc1ccccn1)c1ccc([N+](=O)[O-])cc1,-0.329
13,Cc1ccc(CCNC(=O)CCSCc2ccc(Cl)cc2)cc1,0.898
14,N=c1ccn(CC(=O)NC(N)=O)c2ccccc12,-0.291
15,O=C(Nc1nccs1)c1ccc(Br)o1,1.14
16,CC1=C(C(=O)O)N2C(=O)C(NC(=O)c3ccn(C)n3)C2SC1 (stereo not given),-0.158
17,CCN(CC)C(=O)C1CC(=O)N(c2ccc(F)c(Cl)c2)C1 (stereo not given),-0.0387
18,Cc1c(NC(=O)CSc2nnc(-c3cccc(Cl)c3)o2)c(=O)n(-c2ccccc2)n1C,0.0966
19,Cc1cc(C(=O)C(=O)NC(C)C)c(C)n1-c1ccc([N+](=O)[O-])cc1,-0.134
20,CCOc1ccc(N2C(=O)C3CC(C)=C(C)CC3C2=O)c([N+](=O)[O-])c1 (stereo not given),-0.225
21,COc1ccc(CNC(=O)CSc2nnc(Cn3nnc4ccccc43)n2C)cc1,-0.104
22,COC(=O)NC(=S)Nc1ccc(Oc2ccc(Cl)cc2Cl)c(Cl)c1,active: 3.69
23,CCOC(=O)c1c(-c2ccccc2)nnn1-c1nc(OC)nc(N2CCOCC2)n1,-0.476
24,Cc1cc(OCC(=O)Nc2cccc(S(=O)(=O)NC3=NCCCCC3)c2)ccc1Cl,0.419
25,O=C(CCSc1ccccc1)Nc1ccc(S(=O)(=O)N2CCOCC2)cc1,-0.763
26,O=C(NCc1ccc2c(c1)OCO2)C1(S(=O)(=O)c2ccccc2)CC1,0.121
27,CSc1cccc(NC(=O)CN2C(=O)c3ccccc3S2(=O)=O)c1,-0.451
28,Cc1ccc(N2CC(C(=O)OCC(=O)C(C)(C)C)CC2=O)cc1 (stereo not given),-1.06

row,SMILES,z-score
1,Cc1cccc(-c2noc(CN(C(C)C)S(=O)(=O)c3ccc(F)cc3)n2)c1,0.279
2,Cc1c(NC(=O)CC(O)(C(F)(F)F)C(F)(F)F)c(=O)n(-c2ccccc2)n1C,-0.318
3,Cc1cc(C)n(-c2nc3ccccc3nc2N2CCCC2)n1,-0.364
4,O=C(Cc1c(O)c2ccccc2[nH]c1=O)OC1CCCCC1,0.369
5,CN(C)c1ccc(C2N(c3ccc(F)cc3)C(=O)C3CCCN32)cc1 (stereo not given),-0.532
6,Cc1noc(/C=C/N(C)C)c1S(=O)(=O)N1CCCC(C(=O)NCc2ccco2)C1 (stereo not given),-0.593
7,COc1ccccc1N1CCN(C(=O)CSc2nc3ccccc3o2)CC1,-0.0579
8,Cc1ccc(NC(=S)NCC23C=CC(O2)C2C(=O)N(c4ccc(C)cc4)C(=O)C23)cc1 (stereo not given),-0.0336
9,O=C(NCCNc1ccc([N+](=O)[O-])cc1C(F)(F)F)c1ccc(F)cc1,0.231
10,COc1ccc(CCn2c(C)cc(C(=O)CSc3nnnn3-c3ccccc3)c2C)cc1,0.292
11,CCNC(=O)COc1ccc(Br)cc1Cl,0.307
12,CCCOc1ccc(-c2nnn(CC(=O)c3ccc4c(c3)OCCO4)n2)cc1,0.402
13,CCc1nc(SCC(=O)NCCc2ccccc2)c2oc3ccccc3c2n1,-0.0955
14,CC(=O)Nc1ccc(S(=O)(=O)N2CCN(CCCOc3cc(C)ccc3C)CC2)cc1,0.202
15,O=C(Cn1cnc2c(cnn2-c2ccccc2)c1=O)N1CCCc2ccccc21,-0.296
16,COc1ccc(C(CC(=O)N2CCOCC2)C(C)C)cc1 (stereo not given),-0.118
17,Cc1cccc(NC(=S)N2CCC(c3nc4ccccc4o3)CC2)c1C,-0.413
18,O=C(O)c1ccc(S(=O)(=O)c2ccc3c(c2)C(=O)N(CC2CCCO2)C3=O)cc1 (stereo not given),-0.2
19,Cc1cc(Br)cc(Cl)c1OCC(=O)NC(=O)NCc1ccccc1,-0.59
20,CCCc1[nH][nH]c(=O)c1C(c1ccc(Cl)cc1)C(C#N)C#N (stereo not given),-0.329
21,CC1CCN(S(=O)(=O)c2ccc3c(c2)c(=O)c(C(=O)NC2CCCC2)cn3C)CC1,-0.297
22,Cn1c(=O)c(/C=C/c2ccccc2)nc2ccccc21,-0.208
23,Cc1ccc(CNC(=O)CS(=O)CC(=O)O)cc1 (stereo not given),-0.173
24,CCOC(=O)CSc1nnnn1-c1cc(OC)c(Cl)cc1OC,-0.483
25,CCCCCCc1ccc(OCC(=O)OC)cc1OCC(=O)OC,-0.166
26,O=C(CN1CCSCC1)N1CCc2[nH]c3ccc(Br)cc3c2C1,0.123
27,COCCNC(=O)COC(=O)/C=C/c1c(C)nn(Cc2ccc(Cl)cc2Cl)c1Cl,-0.23
